Test [1] concerns the target T1, full-length HRGβ2 (heregulin isoform β2) fused to the GAL4 DNA-binding domain (pGBKT7-HRGβ2 bait) (human) (UniProt Q02297).
T1 sequence: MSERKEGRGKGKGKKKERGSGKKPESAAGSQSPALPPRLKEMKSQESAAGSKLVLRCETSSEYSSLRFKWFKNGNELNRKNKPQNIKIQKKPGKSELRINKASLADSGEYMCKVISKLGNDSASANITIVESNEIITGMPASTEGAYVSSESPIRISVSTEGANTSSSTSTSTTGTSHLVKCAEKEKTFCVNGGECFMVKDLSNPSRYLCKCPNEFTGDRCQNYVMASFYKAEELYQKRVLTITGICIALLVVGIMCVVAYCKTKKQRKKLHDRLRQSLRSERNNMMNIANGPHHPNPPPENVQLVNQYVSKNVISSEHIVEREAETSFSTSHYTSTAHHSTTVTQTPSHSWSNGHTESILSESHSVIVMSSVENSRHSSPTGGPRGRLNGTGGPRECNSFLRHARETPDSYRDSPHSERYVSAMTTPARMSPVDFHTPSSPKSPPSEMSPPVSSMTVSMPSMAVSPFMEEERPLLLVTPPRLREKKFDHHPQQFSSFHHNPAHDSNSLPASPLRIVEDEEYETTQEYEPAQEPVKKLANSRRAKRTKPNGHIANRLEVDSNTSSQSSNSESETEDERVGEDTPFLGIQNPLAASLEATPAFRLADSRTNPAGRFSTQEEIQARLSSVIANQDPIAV
Description: two-hybrid; pairwise co-transformation of AH109 with GAL4 AD fusions of full-length or deleted RAP1 and the GAL4 DNA-BD fusion of full-length HRGβ2; growth on selective medium and β-galactosidase activity.

The target in test [2] is T1, full-length HRGβ2 (heregulin isoform β2) fused to the GAL4 DNA-binding domain (pGBKT7-HRGβ2 bait) (human). Nature of the test: two-hybrid; library screen: pGBKT7-HRGβ2 bait against the human mammary gland Matchmaker cDNA library in pACT2, yeast strain AH109, selection on medium lacking Ade, His, Leu and Trp with X-α-Gal.

Results are given in words; binding and its absence hold for the method and conditions named. Some results given as binding are weak or reduced against the parent protein; the word gives no strength. Where a sequence is shown, tags or fusion partners need not be part of it.

B1: RAP1 ΔRCT (amino acids 1-290, with an N-terminal nuclear localization signal PRRK) fused to the GAL4 activation domain (domain or fragment, UniProt Q9NYB0 1-290)
chain: PRRKMAEAMDLGKDPNGPTHSSTLFVRDDGSSMSFYVRPSPAKRRLSTLILHGGGTVCRVQEPGAVLLAQPGEALAEASGDFISTQYILDCVERNERLELEAYRLGPASAADTGSEAKPGALAEGAAEPEPQRHAGRIAFTDADDVAILTYVKENARSPSSVTGNALWKAMEKSSLTQHSWQSLKDRYLKHLRGQEHKYLLGDAPVSPSSQKLKRKAEEDPEAADSGEPQNKRTPDLPEEEYVKEEIQENEEAVKKMLVEATREFEEVVVDESPPDFEIHITMCDDDPPTPEED
With B1, in test [1], the binding entry is “binds”.

B2: RAP1 ΔLink (amino acids 1-198 and 224-399) fused to the GAL4 activation domain (domain or fragment, UniProt Q9NYB0)
chain: MAEAMDLGKDPNGPTHSSTLFVRDDGSSMSFYVRPSPAKRRLSTLILHGGGTVCRVQEPGAVLLAQPGEALAEASGDFISTQYILDCVERNERLELEAYRLGPASAADTGSEAKPGALAEGAAEPEPQRHAGRIAFTDADDVAILTYVKENARSPSSVTGNALWKAMEKSSLTQHSWQSLKDRYLKHLRGQEHKYLLGEPQNKRTPDLPEEEYVKEEIQENEEAVKKMLVEATREFEEVVVDESPPDFEIHITMCDDDPPTPEEDSETQPDEEEEEEEEKVSQPEVGAAIKIIRQLMEKFNLDLSTVTQAFLKNSGELEATSAFLASGQRADGYPIWSRQDDIDLQKDDEDTREALVKKFGAQNVARRIEFRKK
For B2, the binding entry in test [1] was “no binding”.

B3: SC-35 amino acid residues 116-221, C-terminal serine/arginine-rich domain (positive clone #415) (domain or fragment, UniProt Q01130 116-221)
chain: GRRSRSPRRRRRSRSRSRSRSRSRSRSRYSRSKSRSRTRSRSRSTSKSRSARRSKSKSSSVSRSRSRSRSRSRSRSPPPVSKRESKSRSRSKSPPKSPEEEGAVSS
For B3, the binding result in test [2] was “binds”.

B4: full-length RAP1 fused to the GAL4 activation domain (pACT2-hRap1) (protein, UniProt Q9NYB0 1-399)
chain: MAEAMDLGKDPNGPTHSSTLFVRDDGSSMSFYVRPSPAKRRLSTLILHGGGTVCRVQEPGAVLLAQPGEALAEASGDFISTQYILDCVERNERLELEAYRLGPASAADTGSEAKPGALAEGAAEPEPQRHAGRIAFTDADDVAILTYVKENARSPSSVTGNALWKAMEKSSLTQHSWQSLKDRYLKHLRGQEHKYLLGDAPVSPSSQKLKRKAEEDPEAADSGEPQNKRTPDLPEEEYVKEEIQENEEAVKKMLVEATREFEEVVVDESPPDFEIHITMCDDDPPTPEEDSETQPDEEEEEEEEKVSQPEVGAAIKIIRQLMEKFNLDLSTVTQAFLKNSGELEATSAFLASGQRADGYPIWSRQDDIDLQKDDEDTREALVKKFGAQNVARRIEFRKK
Consider B4, for which the binding result in test [1] is listed as “binds”.

B5: RAP1 ΔRΔC (ΔRCT/ΔCoil-Coil, amino acids 1-227, with an N-terminal nuclear localization signal PRRK) fused to the GAL4 activation domain (domain or fragment, UniProt Q9NYB0 1-227)
chain: PRRKMAEAMDLGKDPNGPTHSSTLFVRDDGSSMSFYVRPSPAKRRLSTLILHGGGTVCRVQEPGAVLLAQPGEALAEASGDFISTQYILDCVERNERLELEAYRLGPASAADTGSEAKPGALAEGAAEPEPQRHAGRIAFTDADDVAILTYVKENARSPSSVTGNALWKAMEKSSLTQHSWQSLKDRYLKHLRGQEHKYLLGDAPVSPSSQKLKRKAEEDPEAADSGEPQN
As to B5, the binding entry in test [1] was “binds”.

B6: RAP1 ΔMyb (amino acids 1-132 and 192-399) fused to the GAL4 activation domain (domain or fragment, UniProt Q9NYB0)
chain: MAEAMDLGKDPNGPTHSSTLFVRDDGSSMSFYVRPSPAKRRLSTLILHGGGTVCRVQEPGAVLLAQPGEALAEASGDFISTQYILDCVERNERLELEAYRLGPASAADTGSEAKPGALAEGAAEPEPQRHAGEHKYLLGDAPVSPSSQKLKRKAEEDPEAADSGEPQNKRTPDLPEEEYVKEEIQENEEAVKKMLVEATREFEEVVVDESPPDFEIHITMCDDDPPTPEEDSETQPDEEEEEEEEKVSQPEVGAAIKIIRQLMEKFNLDLSTVTQAFLKNSGELEATSAFLASGQRADGYPIWSRQDDIDLQKDDEDTREALVKKFGAQNVARRIEFRKK
In the case of B6, in test [1], the binding result is “binds”.

B7: RAP1 amino acid residues 127-259 (positive clone #480 of the human mammary gland cDNA library in pACT2) (domain or fragment, UniProt Q9NYB0 127-259)
chain: PQRHAGRIAFTDADDVAILTYVKENARSPSSVTGNALWKAMEKSSLTQHSWQSLKDRYLKHLRGQEHKYLLGDAPVSPSSQKLKRKAEEDPEAADSGEPQNKRTPDLPEEEYVKEEIQENEEAVKKMLVEATR
Turning to B7, in test [2], the binding result is given as “binds”.

B8: RAP1 ΔBRCT (amino acids 129-399) fused to the GAL4 activation domain (domain or fragment, UniProt Q9NYB0 129-399)
chain: RHAGRIAFTDADDVAILTYVKENARSPSSVTGNALWKAMEKSSLTQHSWQSLKDRYLKHLRGQEHKYLLGDAPVSPSSQKLKRKAEEDPEAADSGEPQNKRTPDLPEEEYVKEEIQENEEAVKKMLVEATREFEEVVVDESPPDFEIHITMCDDDPPTPEEDSETQPDEEEEEEEEKVSQPEVGAAIKIIRQLMEKFNLDLSTVTQAFLKNSGELEATSAFLASGQRADGYPIWSRQDDIDLQKDDEDTREALVKKFGAQNVARRIEFRKK
In the case of B8, the binding result in test [1] was “binds”.
